This is one part of the list.
T1: UNK ZnF1-3 (human, UniProt Q9C0B0 31-174)
T1 sequence: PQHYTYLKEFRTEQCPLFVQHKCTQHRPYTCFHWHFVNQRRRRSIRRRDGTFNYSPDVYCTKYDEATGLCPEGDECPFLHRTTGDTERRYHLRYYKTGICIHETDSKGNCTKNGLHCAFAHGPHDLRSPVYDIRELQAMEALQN

B1: 77050538_77053148_775_3pUTR_ENSMUSG00000042272_ENSMUST00000102660|mouse|control|control (ssRNA)
RNA: GGGAGUUCUACAGUCCGACGAUCCCAGCAGCUCGUCAUCCAUAGGAGACCACGAGACCCCUCCGUCGGAGCCAUUAAAUCGACGCUGCUGUAAUUCAGAUAACAACUCAUGCCCUGUCUGAAGAACCGUCUCAGGAUCAACGGCAACAGAGGAUUGAGCAUCA
B2: chr14:102368134:102368135:+_ENSG00000078304_ENST00000445439|hu_hu|motif|central (ssRNA)
RNA: GGGAGUUCUACAGUCCGACGAUCGAGGGGUUCCAUGAUCUUCACAAAUUCUGAUGGUUCAAUGACAUCUAAAAUCUCUUCGGAUUCGUUUAAGAACAUUACUUCUUUUGGACUGUGAGUCUUUGGCCAGUAUUUGAGAAGUGCCAACAGAGGAUUGAGCAUCA
B3: 138067797_138068198_4638_CDS_ENSMUSG00000041642_ENSMUST00000075164|mouse|control|control (ssRNA)
RNA: GGGAGUUCUACAGUCCGACGAUCAAUGUGGCCAGUCAGUUUGCCAAUGGGCUGGAACCUGUUGAGCUCCCAGAUGCGGACAGCAUUGCCAGAGGCAACGUAUAGCAUGGAGCCUGAGGGGCUGAGGGCCAUCUGGUUGAUCUGCAACAGAGGAUUGAGCAUCA
B4: chr1:118502009:118502010:+_ENSG00000065183_ENST00000349139|hu_mus|motif|central (ssRNA)
RNA: GGGAGUUCUACAGUCCGACGAUCUGUUAAAAUCAUCCUUUUCCUGUUUUUUCGUUUUUUCUUCUUCUCUUCCAAGUGACGGGUAGCUUCUGCAAAAAACAUCACUUCACUCUUUGCUUCACACUCUCUCUUGAGAUAAUCGAGCAACAGAGGAUUGAGCAUCA
B5: chr9:111175947:111175948:+_ENSMUSG00000046785_ENSMUST00000060711|mus_mus|FALSE|FALSE (ssRNA)
RNA: GGGAGUUCUACAGUCCGACGAUCGGCCUGAAGUUUUGUUAGCUCCACUCUUACAGAAAUAGGCGCAUAUUCCGGUUUAAAGCUAAAUGGAUUUGAGAAAAGUUCUAAGUCCUUUUUAAUGAACCUGAGGUCCUUAAAAUGUCUCAACAGAGGAUUGAGCAUCA
B6: 117897688_117899135_1137_CDS_ENSMUSG00000033295_ENSMUST00000150096|mouse|control|control (ssRNA)
RNA: GGGAGUUCUACAGUCCGACGAUCGAUGUCUUCAUCGCAGCGGCCACACGGAAAUUCUUGGCAAACACUGCCCCUGUUGUAGUAACCACCUUGGGCUUGCUUCGGGCACCAUCCCCCUUAGUGGUGUAGGCAGCGACGGUGAUGCAACAGAGGAUUGAGCAUCA
B7: chr14:96998876:96998877:+_ENSG00000090060_ENST00000216277|hu_hu|FALSE|FALSE (ssRNA)
RNA: GGGAGUUCUACAGUCCGACGAUCAUAAAGCUGGCAAGUUCUUGCUACUAGCAUAGCCCAGGAAACACCACCGAGGAAACCUAAUAUAUUGGAAUAGAUGUUGUGGCGUUUGGCCCAUAGUUUGAUAGCUCUCAGAGUUAACCUCAACAGAGGAUUGAGCAUCA
B8: chr19:2271408:2271409:+_ENSG00000104904_ENST00000602676|hu_mus|motif|central (ssRNA)
RNA: GGGAGUUCUACAGUCCGACGAUCUGGGAUCUUCAGGGGUGGGUGAGGGACAUCGCACCACCGAGGCCCCGGACCCAGGUUACGGCAGCAAUUAAGGGCAACCCUAGAACUCUCGCUGCUGCAGCCGCCGCGGCUGUGCUGACUCAACAGAGGAUUGAGCAUCA
B9: chr14:89307221:89307222:+_ENSG00000165533_ENST00000346301|hu_mus|hu_hu_hu_mus_False|38_98 (ssRNA)
RNA: GGGAGUUCUACAGUCCGACGAUCUCCUGUUUGGUUAGUUCCAGGGAGCUUCAAAGAUGUGCCAGGGCGUGGGACCUGAGCAAUAGCAUUUUCAUCCAGCAUCAUUUCAGCAAUUCCUUCCUGGUCCACAUCAAUUUCAUCUAUCAACAGAGGAUUGAGCAUCA
B10: 49651088_49651498_709_3pUTR_ENSMUSG00000028309_ENSMUST00000029989|mouse|control|control (ssRNA)
RNA: GGGAGUUCUACAGUCCGACGAUCCCCUCUCUCACGGUCAUCUUUGCGUUCCUGAUUGCUAUCAGAGUCAGGUUCUGGUUCUGGCACAACCAAGGCUUUCCUUUCUGUGAGUAGGUCCCCCAAACCCUGGUCCAGAUCAUAACGCAACAGAGGAUUGAGCAUCA
B11: 46692762_46692882_289_3pUTR_ENSMUSG00000015605_ENSMUST00000015749|mouse|control|control (ssRNA)
RNA: GGGAGUUCUACAGUCCGACGAUCUUGGCUCGGUAACAUGGCGCUCAGUGCAGGAGGGCUGACGGGCAAGUCAGCGAGGAAUCGGGGCAGCUGCCGCCAUCGGCUUCUCGGUUCCACCCGGCACUCGCGCUGUUACUAAAGCCGCAACAGAGGAUUGAGCAUCA
B12: chr14:61442442:61442443:-_ENSG00000126814_ENST00000261249|hu_hu|motif|central (ssRNA)
RNA: GGGAGUUCUACAGUCCGACGAUCUAUGGGAAGGAACUCACUGCUGCAUGGCUGCCCAUCUAAAAGCCACUUGAAAGCACGGAGAAACUCUAUAGCUUUUGCUGGCAAGUUCAUGACAACGUGCACAGAGGGUUUUCUUUCUUUCAACAGAGGAUUGAGCAUCA
B13: chrX:135579806:135579807:+_ENSG00000102241_ENST00000218364|hu_hu|motif|central (ssRNA)
RNA: GGGAGUUCUACAGUCCGACGAUCCCAAGUUGGUGCCGCUCAUGUUUCCUACCUAGCUCAGGAGCAGGGUUCAGAAGAACGGAGAGGCCGAAAUGACGCUGGAGCUGAGCAGAGAAAGGGAGGUCAACCGCGCUCUGCUCGCGCCAACAGAGGAUUGAGCAUCA
B14: chr17:87533601:87533602:+_ENSMUSG00000037104_ENSMUST00000041369|mus_hu|FALSE|FALSE (ssRNA)
RNA: GGGAGUUCUACAGUCCGACGAUCUGUUGAAUGUGGGCUCACAGGAGCUGUAUGCUGUUUAAUCAAAUGCCAUUUUUGGGCUAAAUCUGAGCCAGCAGGAAAAGGGCAUUUCUCAAGCAUUAAUUCAGAGAGAUGGAUUUUUCUCAACAGAGGAUUGAGCAUCA
B15: chrX:98417731:98417732:-_ENSMUSG00000046032_ENSMUST00000120389|mus_hu|FALSE|FALSE (ssRNA)
RNA: GGGAGUUCUACAGUCCGACGAUCGUUACUUGGCGGCCCGUAAGCGUCGGUCAGGUCCUGCGGCUUCGAGUUAAGGCGCCGGGUAUCAGCUACUGCCGUGUCCGACAUCUUUCCGAAGGAGAGCCUGGGACCGGGGAAAGGGGGCAACAGAGGAUUGAGCAUCA
B16: chr12:32660859:32660860:-_ENSMUSG00000002997_ENSMUST00000036497|mus_hu|FALSE|FALSE (ssRNA)
RNA: GGGAGUUCUACAGUCCGACGAUCGUCACCUUGAUCAAUUACAUGCUCCCCAUCUUUGACCAAUUUUUCAAACAUGGCAUCUAAUACUUGAGACAUCUGCUCCGGAUCCAGAUUCUUAAACAGCAGGAUGUCUUUGCAAGCCUCCAACAGAGGAUUGAGCAUCA
B17: chr4:76691598:76691599:+_ENSG00000138768_ENST00000264904|hu_mus|FALSE|FALSE (ssRNA)
RNA: GGGAGUUCUACAGUCCGACGAUCCUGCUUAAUGAAAAUUUCUGUAAACUGGCUUCCCAAAUCCUCACUCUGUCUUGUAGAAUUUUCUUCUAGUUCUUCCUCUUCGUCAUUAGAUAUUAUAUUAUAAAGUGUGUCCAAAGCAUACAACAGAGGAUUGAGCAUCA
B18: chr17:56236750:56236751:+_ENSMUSG00000002833_ENSMUST00000002911|mus_mus|FALSE|FALSE (ssRNA)
RNA: GGGAGUUCUACAGUCCGACGAUCGCGCCGCUCCUUCUCCUCCCUCUCCUGUUCUCGAAGUCUCCGGAGCUCUUCCUCCUGCUCCCGUCGCCUCCGAGCCUCCAGCUCACGCCUUCGCUCUUCAUCACGUCUCUUCCAUUCACUCAACAGAGGAUUGAGCAUCA
B19: 158552673_158555425_400_3pUTR_ENSMUSG00000026596_ENSMUST00000166172|mouse|control|control (ssRNA)
RNA: GGGAGUUCUACAGUCCGACGAUCUUUUCACCUUUAGUGAUACUGAGUGUGUUAUCACCACUUGCCACAAAGUCAUAAAGUGCAACAAAGAGAUUAGGGUCACUCUCAGUGGCUCCCAGCAAGUUCUCCUUGGAGCUCCACCUGCAACAGAGGAUUGAGCAUCA
B20: chr11:100643421:100643422:-_ENSMUSG00000020919_ENSMUST00000004143|mus_hu|FALSE|FALSE (ssRNA)
RNA: GGGAGUUCUACAGUCCGACGAUCCCAAUGCACAAGAGAGAAUUUUGAUGUCAAAUUAGGGUGGCAAGGAGAAAACAAAAAAGAUCCAACUUAGAAACAGAACCAUGAUUCAACAUUUGCAAAAAGCAUCAUCAAUAAGCCUGACAACAGAGGAUUGAGCAUCA
B21: chr15:58009597:58009598:+_ENSG00000255529_ENST00000299638|hu_hu|FALSE|FALSE (ssRNA)
RNA: GGGAGUUCUACAGUCCGACGAUCGUGUCAAGAGGGGACACACAGAGAUUUUGGAGUGCUGGCAAGACCUCCUCUGCAUCUAGUUUGUGAUUACACAGCUGUUGCUUUACCCAUUAAGCUCUGUUUUAAGUACUUAUUUGUAAGCAACAGAGGAUUGAGCAUCA
B22: 3309556_3309676_353_5pUTR_ENSMUSG00000020671_ENSMUST00000021001|mouse|control|control (ssRNA)
RNA: GGGAGUUCUACAGUCCGACGAUCCGGAGCAGGAGACCUUCCGAACGGCCUCGUCGAGGAAGCCCCGACGGUGGCGGCGCCCGUGCCUCCGAGGGGCGGCGCCCGCGGCUCCGCAGCCUCUCCCAGCCGCUCCGCCCGGUUCCGCAACAGAGGAUUGAGCAUCA

Molecular target: T1, UNK ZnF1-3
Assay: nsRBNS (natural sequence RNA bind-n-seq); RBNS binding buffer (assumed for nsRBNS): 25 mM Tris pH 7.5, 150 mM KCl, 3 mM MgCl2, 0.01% Triton X-100, 500 ug/ml BSA, 20 U/ml SUPERase-In, 4 C; UNK is unkempt and MSI1 is Musashi-1; names of the RNAs are library labels; protein concentration not given here; high values mean tight binding

Binder | binding signal [enrichment R]
B1 | 0.996
B2 | 0.763
B3 | 0.836
B4 | 0.531
B5 | 0.757
B6 | 0.916
B7 | 1.12
B8 | 0.886
B9 | 1
B10 | 0.639
B11 | 0.174
B12 | 0.972
B13 | 0.921
B14 | 1.13
B15 | 0.903
B16 | 1.51
B17 | 1.77
B18 | 0.617
B19 | 0.747
B20 | 2.01
B21 | 1.12
B22 | 0.215

From paper PMC12136788
